{"source": "PubChem BioAssay AID624417", "about": "(National Center for Advancing Translational Sciences (NCATS), 2012)", "note": "About 6,400 (1.6%) of roughly 410,000 compounds were called active. Inconclusive results, whose numbers are uncertain, are shown with a selection of clear calls. Calls come from the whole dose curve; as a rule, active = well fitted inhibition curve with a large enough effect; inconclusive = small, poorly fitted or top-dose-only effect; inactive = no such curve, though single readings can be large or run the other way. No potency is given beside an inconclusive call; the fits are too rough. Potency is the fitted concentration of half-maximal effect; tags give direction and shape of the fitted curve."}
{"target": "Glucagon-like peptide 1 receptor (Homo sapiens) (UniProt P43220)", "sequence (P43220 whole entry, looked up)": "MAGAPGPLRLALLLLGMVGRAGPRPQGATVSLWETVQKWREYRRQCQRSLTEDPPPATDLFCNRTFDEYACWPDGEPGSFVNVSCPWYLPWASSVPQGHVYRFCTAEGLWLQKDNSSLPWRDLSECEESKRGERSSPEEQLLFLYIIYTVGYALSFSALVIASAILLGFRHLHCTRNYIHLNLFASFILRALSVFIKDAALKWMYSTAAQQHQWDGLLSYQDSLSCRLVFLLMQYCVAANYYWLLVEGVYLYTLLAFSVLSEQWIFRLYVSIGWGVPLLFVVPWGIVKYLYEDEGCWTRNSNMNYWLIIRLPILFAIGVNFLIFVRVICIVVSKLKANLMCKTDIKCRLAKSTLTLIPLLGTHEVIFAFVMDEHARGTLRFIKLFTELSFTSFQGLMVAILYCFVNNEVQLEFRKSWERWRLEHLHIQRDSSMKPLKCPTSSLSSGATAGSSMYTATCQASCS", "assay": "qHTS of GLP-1 Receptor Inverse Agonists (Inhibition Mode); note: nearly all actives have a fitted effect of over 55% in size", "conditions": "HEK293 GLP-1R CRE-luciferase, luminescence, 24 h, GLP-1R form is constitutively active; series mostly up to 38.3 µM", "outline": "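Assay principle: reduced luminescence from a cAMP-responsive reporter in HEK293 cells co-expressing a constitutively active GLP-1R. Conditions: 24 hr compound incubation, 37 deg C, 5% CO2.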"}
{"smiles": "COC(=O)c1sccc1NS(=O)(=O)c1ccccc1", "Potency": "inconclusive [inhibitor, single point]"}
{"smiles": "COCCn1c(C23CC4CC(CC(C4)C2)C3)n[nH]c1=S", "Potency": "inconclusive [inhibitor, single point]"}
{"smiles": "CC(C)c1ccc(NC(=O)C2Cc3c(-c4cccc(C(N)=O)c4)ccnc3O2)cc1", "note": "(stereo not given)", "Potency": "inconclusive [inhibitor, single point]"}
{"smiles": "CCN1CCN(CCCNC(=O)c2ccc3c(Cl)c4c(nc3c2)CCCC4)CC1", "Potency": "inconclusive [inhibitor, partial curve]"}
{"smiles": "Cc1ccc(C(=O)NCCOc2ccc(Cl)cc2)cc1", "Potency": "inconclusive [inhibitor, single point]"}
{"smiles": "C=CCN(CC=C)c1cnn(-c2nc3ccccc3[nH]2)c(=O)c1Cl", "Potency": "inactive"}
{"smiles": "O=C(CN1CCN(Cc2ccc(F)cc2Cl)CC1)NCc1ccccc1", "Potency": "inconclusive [inhibitor, partial curve, poor fit]"}
{"smiles": "O=C(CP(=O)(c1ccccc1)c1ccccc1)N1CCCCC1", "Potency": "inconclusive [inhibitor, partial curve]"}
{"smiles": "COc1cc(Nc2ccn3nc(-c4ccc(F)cc4)cc3n2)cc(OC)c1OC", "Potency": "inactive"}
{"smiles": "CCCN(CC(=O)Nc1ccccc1C)C(=O)c1cccc(S(=O)(=O)N2CCN(c3ccccc3)CC2)c1", "Potency": "inconclusive [inhibitor, partial curve, poor fit]"}
{"smiles": "Cc1cccc(N2CCN(C(=O)CC(NC(=O)c3ccccc3)c3ccccc3)CC2C)c1", "note": "(stereo not given)", "Potency": "inconclusive [inhibitor, partial curve, poor fit]"}
{"smiles": "COc1ccc(-c2cc(C(=O)N3CCCC3)no2)cc1", "Potency": "inconclusive [inhibitor, partial curve, poor fit]"}
{"smiles": "Cc1c(C(=O)N2CCCCCC2)c(S(=O)(=O)N(Cc2ccccc2)C(C)(C)C)c(C)n1C", "Potency": "inactive"}
{"smiles": "COc1ccc(N(C(=O)/C=C\\C(=O)Nc2ccc(C)cc2)C(C(=O)NCc2ccco2)c2ccc(C)cc2)cc1", "note": "(stereo not given)", "Potency": "inconclusive [inhibitor, partial curve, poor fit]"}
{"smiles": "Cc1cc(NC(=O)c2cc([N+](=O)[O-])ccc2Cl)no1", "Potency": "inconclusive [inhibitor, single point]"}
{"smiles": "COCCC(=O)N1CCC(Oc2ccc(C(=O)NC3Cc4ccccc4C3)cc2)CC1", "Potency": "inconclusive [inhibitor, partial curve, poor fit]"}
{"smiles": "CCCn1c(=NC(=O)c2cc3ccccc3o2)c(C(=O)OCC)cc2c(=O)n3ccccc3nc21", "Potency": "inactive"}
{"smiles": "C#CCN(C[C@@H]1[C@@H](OC(=O)NC2CCCC2)[C@@H](OC(=O)NC2CCCC2)Cn2c(=O)ccc(=O)n21)S(=O)(=O)c1ccc(C)cc1", "Potency": "inconclusive [inhibitor, partial curve, poor fit]"}
{"smiles": "CN1Cc2cccc3c2C(Cc2ccccc2S3)C1", "note": "(stereo not given)", "Potency": "inconclusive [inhibitor, partial curve, poor fit]"}
{"smiles": "CC(C)c1ccccc1NC(=O)Nc1ccc(F)cc1F", "Potency": "inconclusive [inhibitor, partial curve, poor fit]"}
{"smiles": "N#Cc1ccc(C(=O)N2CCC3CC2c2cc(-c4ccc(F)cc4)ccc23)cc1", "note": "(stereo not given)", "Potency": "inconclusive [inhibitor, single point]"}
{"smiles": "O=C(NNC(=S)Nc1ccccc1)c1cccnc1", "Potency": "inactive"}
{"smiles": "CCOC(=O)N1CCN(S(=O)(=O)c2ccc(C(=O)NNc3nc4ccc(Cl)cc4s3)cc2)CC1", "Potency": "inconclusive [inhibitor, single point]"}
{"smiles": "COc1ccccc1CNC(=O)C1(NC(=O)Nc2ccc(C)cc2)CCCCC1", "Potency": "active: 8.91 µM"}
{"smiles": "CCc1ccc(CN2CCC(C(=O)Nc3ccc(-n4nc(C)cc4C)cc3)CC2)o1", "Potency": "inconclusive [inhibitor, partial curve, poor fit]"}
{"smiles": "O=C1C2C3C=CC(C4CC34)C2C(=O)N1/N=C/c1cccs1", "note": "(stereo not given)", "Potency": "inconclusive [inhibitor, single point]"}
{"smiles": "COc1cc(C2c3c(-c4ccccc4O)n[nH]c3C(=O)N2Cc2ccco2)ccc1OCC(C)C", "note": "(stereo not given)", "Potency": "inconclusive [inhibitor, single point]"}
{"smiles": "CCOc1ccccc1NC(=O)C(CC)n1c(C(=O)OC)cc2occc21", "note": "(stereo not given)", "Potency": "inconclusive [inhibitor, single point]"}
{"smiles": "CN(CCCNC(=O)c1cccn2c(=O)c3ccccc3nc12)Cc1ccccc1", "Potency": "inactive"}
{"smiles": "Cc1ccc(Cc2c(C(C)(C)C)nc3cc(C)c(Br)c(C)n23)cc1", "Potency": "inconclusive [inhibitor, single point]"}
{"smiles": "CCc1cccc(C)c1NC(=O)CN1CCCN(Cc2ccccc2Cl)S1(=O)=O", "Potency": "inactive"}
{"smiles": "CC1CCC(NC(=O)c2cc3c(s2)CCCC3)CC1", "note": "(stereo not given)", "Potency": "inconclusive [inhibitor, partial curve, poor fit]"}
{"smiles": "COc1cc(C(=O)NC(c2ccc(Cl)cc2)c2cc(Cl)c3cccnc3c2O)cc(OC)c1OC", "note": "(stereo not given)", "Potency": "inconclusive [inhibitor, full curve, poor fit]"}
{"smiles": "Cc1ccc(C2=Nc3ccccc3N=C(C(Cl)Cl)C2)cc1", "Potency": "inactive"}
{"smiles": "CCOc1ccc2nc(NC(=O)CCC(=O)c3cccs3)sc2c1", "Potency": "inconclusive [inhibitor, single point]"}
{"smiles": "O=C(CSCc1cccc(Cl)c1)NCc1ccc2c(c1)OCO2", "Potency": "inconclusive [inhibitor, single point]"}
{"smiles": "C=CCn1c(C)cc(C(=O)CN2C(=O)NC3(CCCc4ccccc43)C2=O)c1C", "note": "(stereo not given)", "Potency": "inconclusive [inhibitor, single point]"}
{"smiles": "COc1ccc(CCNC(=O)C2CCCN(S(=O)(=O)N3CC(C)CC(C)C3)C2)cc1OC", "note": "(stereo not given)", "Potency": "inconclusive [inhibitor, partial curve, poor fit]"}
{"smiles": "Cc1ccc(-c2nn3c(C)nnc3s2)cc1NC(=O)c1ccc(-c2cccc(Cl)c2)o1", "Potency": "inconclusive [inhibitor, single point]"}
{"smiles": "COc1cccc(/C(O)=C/c2nc3ccc(C(=O)NCCc4ccc(Cl)cc4)cc3[nH]c2=O)c1", "Potency": "inactive"}
